Measured values taken from paper PMC7819943, “Rice protein-binding microarrays: a tool to detect cis-acting elements near promoter regions in rice”.
The list shows a part of the results.

Target: T1, OsWOX13 (Oryza sativa, UniProt Q5QMM3 1-267)
T1 sequence: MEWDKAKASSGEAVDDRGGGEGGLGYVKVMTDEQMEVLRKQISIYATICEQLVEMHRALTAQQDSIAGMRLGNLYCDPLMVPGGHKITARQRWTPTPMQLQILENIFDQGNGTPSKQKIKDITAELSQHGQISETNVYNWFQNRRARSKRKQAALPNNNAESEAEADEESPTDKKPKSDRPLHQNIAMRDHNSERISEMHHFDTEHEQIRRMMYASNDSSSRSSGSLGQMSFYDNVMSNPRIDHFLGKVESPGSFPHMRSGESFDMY
Experiment: protein-binding microarray (RPBM); PBS, 2% BSA, 51.3 ng/ul salmon testes DNA, 50 uM zinc acetate, 200 nM TF, 25 C, 1 h; high values mean tight binding
Settings: protein: recombinant; tags: N-terminal polyhistidine and DsRed monomer fusion (pET32a); label: CyDye5-dUTP incorporated in the synthesized complementary strand; 3' TTTTT single-stranded linker to array surface; dsDNA, one strand shown
Outline: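 Binding signal is defined as the fluorescence intensity of each feature in arbitrary units, read on an Axon 4000B scanner. Transcription factors with N-terminal polyhistidine and DsRed fusions came from E. coli BL21-CodonPlus and were purified on Ni–NTA. They were incubated at 200 nM for 1 h at 25 °C on a custom Agilent array that had been made double-stranded with Cy5-dUTP, with 50 µM zinc acetate present, and the array was washed.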

First: TTATAAATTATTAAGACAACTATTATGGTATTATCAAATCCGGAGTCACCTAGTGCAG
Second: TTTGTTTAATCAGTTTATTATTAGATAATGCAAGCATGCCCGGAGTCACCTAGTGCAG
The binding signal of the first is lower: 3800 fluorescence intensity (a.u.) for the first, 6750 fluorescence intensity (a.u.) for the second.

Compared with “CTGTAGAATTAATGGATGGTTAATCCGGGCTTAATTGGTTCGGAGTCACCTAGTGCAG”, “AGAGGAATTAATTATGCAAAACATGGGCCACAAATTGAATCGGAGTCACCTAGTGCAG” is higher in binding signal: 9750 fluorescence intensity (a.u.) for the first, 16500 fluorescence intensity (a.u.) for the second.

First: CTTCAAAATTTTGATACTAACTGGCTAAGTAATCATCCTACGGAGTCACCTAGTGCAG
Second: TTGACATGTCAAATTGGATATACGAACACACATTTGAAGTCGGAGTCACCTAGTGCAG
The binding signal of the first is lower: 9340 fluorescence intensity (a.u.) for the first, 11500 fluorescence intensity (a.u.) for the second.

First: TTAGGAGATACTATTACTAATTGAGTGTGTTACTCAACGTCGGAGTCACCTAGTGCAG
Second: TCTGTAATTACTATTATTTTCTAAATTTATTTGCATATGACGGAGTCACCTAGTGCAG
The binding signal of the first is lower: 5520 fluorescence intensity (a.u.) for the first, 21500 fluorescence intensity (a.u.) for the second.

Going from “TATAGTTAAATAATTGGCCATGTATTGATATGGTGCAAATCGGAGTCACCTAGTGCAG” to “TTCTTGCTGGATTGACGATTCTGCAGTCTCGTGGCTCAGACGGAGTCACCTAGTGCAG”, the binding signal falls from 11700 fluorescence intensity (a.u.) to 6440 fluorescence intensity (a.u.).

Compared with “CACCAACTAATTTCATTGGAATTTTGTGGGAGGTGGAGGGCGGAGTCACCTAGTGCAG”, “ACGGATAGATAGGAAAACTTACTCCTGCTGCGCATGCACACGGAGTCACCTAGTGCAG” is lower in binding signal: 9810 fluorescence intensity (a.u.) for the first, 8880 fluorescence intensity (a.u.) for the second.

Going from “CGATTATGATTATGTTATACGGTTATACCATTGGTTGCAACGGAGTCACCTAGTGCAG” to “GTTATTTTAATTTATTTTCCTGGTTGTAATACCATGTTAGCGGAGTCACCTAGTGCAG”, the binding signal falls from 24800 fluorescence intensity (a.u.) to 10700 fluorescence intensity (a.u.).

Compared with “GAGAAACGCCATTGATTGGTGGAGAGAGAGAGAGAGAGAACGGAGTCACCTAGTGCAG”, “TACTCATATAATTTTAATGGGACACGCTGATCCCGTTCGTCGGAGTCACCTAGTGCAG” is lower in binding signal: 16200 fluorescence intensity (a.u.) for the first, 5040 fluorescence intensity (a.u.) for the second.

Going from “GCCTATTCCATTAATTGACCGGGATTGCCAAGTGTCCCCGCGGAGTCACCTAGTGCAG” to “TATAATTGAAATGTAATTATATTGTAACTACATTTAACTGCGGAGTCACCTAGTGCAG”, the binding signal rises from 28800 fluorescence intensity (a.u.) to 44400 fluorescence intensity (a.u.).

Compared with “CTTGCAATGATTGCGATGAAGCCTGGAATGTATCTGGCTGCGGAGTCACCTAGTGCAG”, “TCTCATTGACAAGCCAACAAACGCACAGTGTGACAAGCTCCGGAGTCACCTAGTGCAG” is lower in binding signal: 22300 fluorescence intensity (a.u.) for the first, 3600 fluorescence intensity (a.u.) for the second.

Compared with “TAAATTTAATAAACAGCTGGAAAGATTTCCTCTCCAAAATCGGAGTCACCTAGTGCAG”, “TGTGGTTTATTTTATGATTAGAAAATTTTAAGCACCACTTCGGAGTCACCTAGTGCAG” is higher in binding signal: 4480 fluorescence intensity (a.u.) for the first, 8180 fluorescence intensity (a.u.) for the second.

Compared with “CTTTAGACTAAATTATATTAGCCTTGACCCTGATAATTCACGGAGTCACCTAGTGCAG”, “CAGCGTAATTAATTGACCTCGGTCTCCTTGCTCCCCTATCCGGAGTCACCTAGTGCAG” is higher in binding signal: 8190 fluorescence intensity (a.u.) for the first, 38300 fluorescence intensity (a.u.) for the second.

Compared with “TGCAGTTAATTAATTACTTGCATTTAATTATACGCCTCGCCGGAGTCACCTAGTGCAG”, “ACATTTTGATTTGCACTTGCAATTCCTACCTGAACTTGAGCGGAGTCACCTAGTGCAG” is lower in binding signal: 35600 fluorescence intensity (a.u.) for the first, 28400 fluorescence intensity (a.u.) for the second.

First: TGTTTAATGGACTGGGCCAAAATACAAATATATAAATTGCCGGAGTCACCTAGTGCAG
Second: CCAAAGTATTTACAGATTGACCGCAATATACAATTGATCTCGGAGTCACCTAGTGCAG
The binding signal of the first is higher: 7430 fluorescence intensity (a.u.) for the first, 3810 fluorescence intensity (a.u.) for the second.

Compared with “GAAGATGATTACCTTGGCGGCGCTGGCGACGATGCACCTCCGGAGTCACCTAGTGCAG”, “GAACAGGTAATTTAAAATTGATGGAGTTCATAGGATGTCACGGAGTCACCTAGTGCAG” is higher in binding signal: 12300 fluorescence intensity (a.u.) for the first, 24200 fluorescence intensity (a.u.) for the second.

First: TATATATATATATATAAACAGATGAGTACTACAGTACCAACGGAGTCACCTAGTGCAG
Second: TACTCATTGATTGCAGGTTCCTTGAAATTTACTGGTAGAGCGGAGTCACCTAGTGCAG
The binding signal of the first is lower: 3880 fluorescence intensity (a.u.) for the first, 33500 fluorescence intensity (a.u.) for the second.

Going from “AATGATAACATGAAAATTTCATAGTAATACGAAGATGTTCCGGAGTCACCTAGTGCAG” to “TGGATGAATGAATGGATATATTGACGTATATATACGAGTCCGGAGTCACCTAGTGCAG”, the binding signal rises from 6230 fluorescence intensity (a.u.) to 7940 fluorescence intensity (a.u.).

First: CCACGGGATTGCAGAGATTGCAATCGAATCAAACAACCAACGGAGTCACCTAGTGCAG
Second: CTCATTTCAAATTAACTGTAGATGTTGATTAGGTTTATTTCGGAGTCACCTAGTGCAG
The binding signal of the first is lower: 5620 fluorescence intensity (a.u.) for the first, 16900 fluorescence intensity (a.u.) for the second.

First: TGGTTCTGATTTTATTTCCATCGTAATTTATTTTCTAATGCGGAGTCACCTAGTGCAG
Second: GGTGATGATTGCCGGAGTTGGAGCTGCGACTTGAAGGACACGGAGTCACCTAGTGCAG
The binding signal of the first is lower: 7830 fluorescence intensity (a.u.) for the first, 30700 fluorescence intensity (a.u.) for the second.

Compared with “CATTAATTGGCCGTTGAAATTTTCTCGCCGCGAACGAAGACGGAGTCACCTAGTGCAG”, “GTAAAATTGATGTTGCTAGATTTATTATTAAAATACTATCCGGAGTCACCTAGTGCAG” is lower in binding signal: 34500 fluorescence intensity (a.u.) for the first, 21300 fluorescence intensity (a.u.) for the second.

Compared with “TTGGATGTGATGTGATGTAATGGAAAGTTAAAAGTTTGGACGGAGTCACCTAGTGCAG”, “AAAATTAACCTAACCATGGATTAAATATCTAATGATGGGTCGGAGTCACCTAGTGCAG” is higher in binding signal: 4270 fluorescence intensity (a.u.) for the first, 6560 fluorescence intensity (a.u.) for the second.
